Data on 72 compounds can be found in PubChem BioAssay AID1240 (Sanford-Burnham Center for Chemical Genomics, 2008).

Structures are written as SMILES. Among all 50,000 compounds or so, about 800 (1.6%) showed an effect of 50% or more. This is one part of the list.

The target in the assay is Bcl-2-like protein 10 (Homo sapiens) (UniProt Q9HD36). Put plainly: Phenotype converters, Bcl-B/TR3 peptide binding displacement, primary biochemical FP (AID 1240).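 Also: 0% = Bcl-B with tracer peptide and DMSO and 100% = tracer peptide lacking Bcl-B.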 As to conditions: GST-Bcl-B / FITC-TR3 peptide fluorescence polarization; stronger effect = higher value; compound at 3.75 mg/L.
Sequence of UniProt Q9HD36 (Q9HD36 whole entry, looked up): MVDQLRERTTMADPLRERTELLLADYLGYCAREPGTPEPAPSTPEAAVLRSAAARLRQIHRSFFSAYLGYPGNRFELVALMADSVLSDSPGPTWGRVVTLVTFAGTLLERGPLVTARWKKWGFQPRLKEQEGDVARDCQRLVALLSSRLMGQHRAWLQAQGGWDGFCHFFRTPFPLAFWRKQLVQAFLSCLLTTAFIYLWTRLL
`CCOc1ccc(NC(=O)CN(c2ccc(Oc3ccccc3)cc2)S(C)(=O)=O)cc1`: the displacement was -0.6%.

On to `C=CCn1c(N)c(C(=O)NCC2CCCO2)sc1=S` (configuration not stated), for which the displacement was found to be 9.8%.

`CCOc1ccc(N2C(=O)NC(=O)/C(=C\c3ccc(OCC(=O)O)c(Br)c3)C2=O)cc1`: the displacement is -27%.

On to `CCOC(=O)c1c(N)sc(C(=O)OC(C)(C)C)c1C`, for which the displacement was found to be 3.9%.

Regarding `Cc1ccc(/C=C/C(=O)Nc2cccc(Cl)c2Cl)o1`, the displacement came to 19%.

Consider `CCc1ccccc1NC(=O)CN(c1ccc(Oc2ccccc2)cc1)S(C)(=O)=O`, for which the displacement is -0.3%.

For the compound `CCN(C(=O)c1cc2cc(Cl)cc(Cl)c2oc1=O)c1ccccc1`, the displacement turned out to be 13.8%.

In the case of `C=CCN(CC=C)C(=O)C(C)Oc1ccccc1` (configuration not stated), the displacement stood at 8.3%.

For `Cc1ccc(NC(=O)COc2ccc(Cl)cc2)c([N+](=O)[O-])c1`, the displacement was -0.3%.

For `CC(NC(=O)C12CC3CC(CC(C3)C1)C2)C(=O)Nc1ccc(S(=O)(=O)Nc2nccs2)cc1` (configuration not stated), the displacement was found to be 15.9%.

Consider `Cc1sc(NC(=O)c2ccc(F)cc2)c(C(=O)OC(C)C)c1C`, for which the displacement is 1.6%.

For `COc1ccc(CN2CCN(C3CCC(C)CC3)CC2)c(OC)c1` (configuration not stated), the displacement is -16.3%.

For `COc1ccc(NC(=O)c2cccc(C)c2)cc1Cl`, the displacement is 3%.

In the case of `Cc1nc2c(-c3ccccc3)c(C)nn2c(C(C)(C)C)c1C`, the displacement was determined as 5%.

For the compound `CC1=NN(c2ccccc2)C(=O)/C1=C/c1ccccc1OS(=O)(=O)c1ccccc1[N+](=O)[O-]`, the displacement worked out at 17.4%.

For the compound `O=C(/C=C/c1ccc2c(c1)OCO2)n1nnc2ccccc21`, the displacement was 7.1%.

On to `Cc1ccc(C(=O)N/C(=C\c2cccs2)C(=O)NCc2ccncc2)cc1`, for which the displacement amounted to 10.8%.

As to `Cc1cc(C)c(C(=O)/C(=C/c2cccc(Br)c2)c2ccccc2)c(=O)[nH]1`, the displacement is -13.3%.

Consider `CC(=O)Nc1ccc(S(=O)(=O)N2c3ccccc3C(Nc3ccccc3)CC2C)cc1` (configuration not stated), for which the displacement turned out to be 3%.

For the compound `O=C(NCCC1=CCCCC1)c1cccc([N+](=O)[O-])c1`, the displacement was -5.1%.

Take `CCOc1c(Cl)cc(/C=C2\C(=O)NC(=O)N(c3cc(C)cc(C)c3)C2=O)cc1OC`: the displacement was -12.2%.

For `CCOc1ccccc1NC(=O)CCCOc1ccccc1`, the displacement is -0.8%.

As to `CCN(CC)C(=O)CN(c1ccc(C)cc1)S(=O)(=O)c1ccc(F)cc1`, the displacement was 9%.

Regarding `Cn1nnc(NC(=O)c2ccccc2F)n1`, the displacement is 8.5%.

For the compound `O=C(CCN1C(=O)c2ccccc2C1=O)Nc1ccc(F)c(Cl)c1`, the displacement was -10.7%.

For `O=C1C(=Cc2cccc3ccccc23)C(=O)c2ccccc21`, the displacement is -4.8%.

With `CC(C)C(=O)Nc1ccc2oc(-c3ccccc3Br)nc2c1`, the displacement worked out at 8.2%.

In the case of `O=C1N=C(c2ccccc2)S/C1=C\c1ccccc1`, the displacement worked out at 6.1%.

Regarding `Clc1ccc(-c2noc(-c3ccc(I)cc3)n2)cc1`, the displacement is -0.6%.

Take `O=C(CSc1nc2sc3c(c2c(=O)n1-c1ccc(Cl)cc1)CCC3)Nc1ccccc1`: the displacement came to 4.3%.

In the case of `O=[N+]([O-])c1cccc(CN2CCN(Cc3cccnc3)CC2)c1`, the displacement is -8.7%.

In the case of `Cc1ccc(SCC(=O)Nc2cccc3ncccc23)cc1`, the displacement turned out to be 47.1%.

Regarding `O=C(CCN1C(=O)c2ccccc2C1=O)NCc1ccccn1`, the displacement was 9.5%.

On to `COc1ccccc1CN1CCN(S(C)(=O)=O)CC1`, for which the displacement turned out to be 15.4%.

On to `COc1cccc(NC(=O)CN(c2ccc(OC)c(Cl)c2)S(=O)(=O)c2ccccc2)c1`, for which the displacement turned out to be 11.7%.

Consider `Cc1ccc2nc3[nH]c(=O)[nH]c(=O)c3nc2c1`, for which the displacement is 2.7%.

In the case of `Cc1ccccc1C(=O)Nc1ccc(-c2ccc([N+](=O)[O-])cc2)cc1`, the displacement was 1.5%.

Consider `COc1ccc(OC)c(/C=N\NC(=O)CNc2ccc(C)cc2)c1`, for which the displacement was found to be 5.1%.

`O=C(NCc1ccccc1Cl)C1CC(=O)N(c2cccc([N+](=O)[O-])c2)C1` (configuration not stated): the displacement was -9.6%.

For `O=C(COc1ccc(Cl)cc1Br)N1CCN(c2ccccn2)CC1`, the displacement amounted to 5.3%.

As for `COC(=O)/C(C#N)=C\c1ccc(OC)cc1`, the displacement is -8.7%.

For the compound `CCOC(=O)c1c(NC(C)=O)sc(I)c1-c1ccccc1`, the displacement worked out at 0.8%.

Turning to `Cc1nc2c(C)cccc2c2c1CC(C)O2` (configuration not stated), the displacement amounted to 31.8%.

Take `Cc1cc(NS(=O)(=O)c2ccc(Nc3nc(-c4ccccc4)cs3)cc2)no1`: the displacement is 10.4%.

In the case of `O=C(CN(c1ccc(F)cc1)S(=O)(=O)c1ccccc1)N1CCN(c2ccccc2)CC1`, the displacement is -7.5%.

With `Cc1ccc(NC(=O)/C=C\C(=O)O)c(C)c1`, the displacement came out at 14.1%.

As for `CC1(C)CC(=O)C(C=Nc2ccc(S(N)(=O)=O)cc2)=C(O)C1`, the displacement stood at 5.2%.

For `Cc1ccc([N+](=O)[O-])cc1NC(=O)COc1ccc(Cl)cc1C`, the displacement stood at 2.5%.

In the case of `CC(=O)Nc1ccc(NC(=S)Nc2ccc(F)cc2)cc1`, the displacement is -0.5%.

As for `Cc1ccc(-n2nc3cc(C)c(NC(=O)c4cc(Cl)ccc4Cl)cc3n2)cc1`, the displacement was -4.7%.

Take `Cc1c(OCc2ccccc2F)ccc2c3c(c(=O)oc12)CCCC3`: the displacement is -3.9%.

Consider `Cn1c2nc(-[n+]3ccccc3)nc-2c([O-])n(C)c1=O`, for which the displacement is -0.3%.

For the compound `Cc1ccccc1N(CC(=O)NCc1ccccn1)S(C)(=O)=O`, the displacement is -9%.

Turning to `Cc1cccc(NC(=O)C(C)Oc2ccccc2)c1C` (configuration not stated), the displacement was -5%.

Regarding `Cc1ccc(NC(=O)C(=O)NCc2ccccc2Cl)c(C)c1`, the displacement is 6.1%.

`S=C1NC(c2cccs2)=CC(c2ccc(Br)cc2)N1` (configuration not stated): the displacement was -4%.

On to `O=C1/C(=C\c2ccc(O)c(O)c2)SC(=S)N1c1ccc(F)cc1`, for which the displacement amounted to 17.8%.

For the compound `CC(NC(=O)c1cnn(-c2ccccc2)c1NC(=O)c1ccccc1)c1ccccc1` (configuration not stated), the displacement was -11.6%.

For `COc1ccc(OCC(=O)Nc2cccc(C(C)=O)c2)cc1`, the displacement amounted to 9.4%.

In the case of `CC/C(=N/O)c1ccc(CCCC(=O)O)s1`, the displacement was determined as 2.1%.

Turning to `Cc1occc1C(=O)Nc1ccc(F)cc1F`, the displacement is 0.3%.

With `O=C(O)c1ccc(CS(=O)(=O)c2ccc(Br)cc2)cc1`, the displacement is -5.2%.

Turning to `COc1cccc(/C=N/NC(=O)CSCC(=O)Nc2ccccc2)c1O`, the displacement was -24.4%.

Consider `CSc1ccc(C2Nc3ccc4ccccc4c3C3=C2C(=O)CC(C)(C)C3)cc1` (configuration not stated), for which the displacement was -3%.

In the case of `O=C(NC(=S)Nc1cccc(F)c1)c1ccccc1`, the displacement stood at 4.2%.

Regarding `CCc1ccc2[nH]cc(C(=O)O)c(=O)c2c1`, the displacement was -9%.

On to `O=C1c2ccccc2NC(c2ccccc2)N1Cc1ccccc1` (configuration not stated), for which the displacement was found to be 15.9%.

As to `CCc1ccccc1NC(=O)c1c(NC(=O)c2ccccc2)sc2c1CCC2`, the displacement was -15.6%.

For `OCCN(C(=S)Nc1ccc2nccnc2c1)c1ccccc1`, the displacement amounted to 14.9%.

`COc1ccc(C2c3cc(OC)c(OC)cc3CC(=O)N2c2ccc(OC)cc2)cc1` (configuration not stated): the displacement stood at 6.4%.

As for `CCc1ccc(N2N=C(C)/C(=C\c3ccc(-c4ccc5c(c4)C(=O)NC5=O)o3)C2=O)cc1`, the displacement came to 3.8%.

On to `COc1cccc(C2C(C(=O)OCc3ccccc3)=C(C)NC3=C2C(=O)CCC3)c1OC` (configuration not stated), for which the displacement worked out at 10%.
